Assay results reported in PubChem BioAssay AID1159614 (National Center for Advancing Translational Sciences (NCATS), 2016).
Out of some 45,000 compounds screened, about 65 (0.1%) were called active. The call rests on the fitted dose curve; in most records, active means well fitted activation curve with a large enough effect; inconclusive means small, poorly fitted or top-dose-only effect; inactive means no such curve, though single readings can be large or run the other way. Some of the results follow.

The compounds below were run against Galactocerebrosidase (Homo sapiens) (UniProt P54803) (assay: A Novel Cell-Based Assay to Identify Small Molecules for B -Galactocerebrosidase). Conditions: 145M-Twi-hGALC-G270D cells (Twitcher mouse brain line with human GALC G270D), HMU-beta-Gal fluorescence, 48 h; series mostly up to 57.5 µM; activation: at the top concentration.
UniProt P54803, sequence (P54803 whole entry, looked up): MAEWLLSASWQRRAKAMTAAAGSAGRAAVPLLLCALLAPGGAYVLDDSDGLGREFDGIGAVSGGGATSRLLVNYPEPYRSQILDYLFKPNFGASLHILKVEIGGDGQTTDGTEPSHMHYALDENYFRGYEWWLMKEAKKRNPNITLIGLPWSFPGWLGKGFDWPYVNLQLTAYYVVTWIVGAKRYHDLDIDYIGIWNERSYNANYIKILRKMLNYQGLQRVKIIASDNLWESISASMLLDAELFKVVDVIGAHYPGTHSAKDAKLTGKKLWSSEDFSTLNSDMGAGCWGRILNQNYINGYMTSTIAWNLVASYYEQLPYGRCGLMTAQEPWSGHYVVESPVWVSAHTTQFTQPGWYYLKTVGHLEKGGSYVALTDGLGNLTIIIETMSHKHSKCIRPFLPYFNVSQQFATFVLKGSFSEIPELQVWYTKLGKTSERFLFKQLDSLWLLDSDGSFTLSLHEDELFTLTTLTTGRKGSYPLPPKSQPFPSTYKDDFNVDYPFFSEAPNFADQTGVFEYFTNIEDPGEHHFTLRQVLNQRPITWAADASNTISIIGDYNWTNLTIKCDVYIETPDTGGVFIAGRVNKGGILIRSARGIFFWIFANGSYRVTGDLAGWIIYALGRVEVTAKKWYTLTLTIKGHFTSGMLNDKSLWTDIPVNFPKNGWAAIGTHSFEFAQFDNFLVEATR
In short: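 Fluorogenic HMU-b-Gal hydrolysis (0.1 mM final, pH 5.2 citrate-phosphate with 1 mg/mL sodium taurocholate; carbonate stop buffer) measures mutant GALC activity after compound treatment of live 145M-Twi Twitcher brain cells stably carrying human GALC-G270D, with wild-type GALC line alongside; activation sought.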
Further: 0% is about no effect; nearly all actives have a fitted effect of over 65% in size.

activation, inactive:
O=C(Nc1ccc(Br)cc1)c1ccc(F)c(S(=O)(=O)NC2CCCCCC2)c1 -7.78%
Cc1cccc(C)c1NC(=O)Nc1csc2c1CCCC2 -15%
O=C(CCn1nc(-c2ccccc2)c2ccccc2c1=O)Nc1ccccc1 -12%
Cc1ccc(-n2nc(CO)c(C(=O)NCc3ccccn3)n2)cc1 -6.85%
Cc1ccc2nc(N(CCCN(C)C)C(=O)c3ccco3)sc2c1 -17.9%
COc1ccc(-c2nc(-c3cc4cc(Br)ccc4oc3=O)cs2)cc1 -16%
COc1ccccc1N1CCN(c2nc3ccccc3n3cnnc23)CC1 2.06%
Cc1ccc2c(c1)N(C(=O)N1CCC(C(=O)NCc3cccc(Br)c3)CC1)CCO2 -6.99%
COc1ccc(OCc2ccc(-c3nc(C#N)c(N4CCN(c5ccccc5)CC4)o3)o2)cc1 -16.8%
Cc1cc(-c2ccc(C)c(S(=O)(=O)Nc3cccc(C)n3)c2)on1 -10.9%
CC(=O)Nc1ccc(NC(=O)c2cc(=O)c3ccccc3o2)cc1 11%
CCc1ccc(-n2nnc(-c3nsc(NC(=O)c4ccccc4Cl)n3)c2C)cc1 -13.5%
O=C(COc1ccccc1F)OCc1cc(=O)n2nc(C3CCCCC3)sc2n1 1.94%
CCN(CC)c1cc(C)c2cc(NC(=O)c3cccc(OC)c3OC)ccc2n1 -5.33%
COc1cccc2cc(S(=O)(=O)c3ccc(F)c(C)c3)c(=O)oc12 -16.8%
COC(=O)c1sc2cccc(F)c2c1S(=O)(=O)N1CCN(c2cccc(OC)c2)CC1 -8.7%
CCOC(=O)c1cc(-c2ccccc2)n(CCC(=O)NCc2ccccc2Cl)c1C -13.7%
COc1ccc(Nc2nc3ccccc3nc2NS(=O)(=O)c2ccc(C)cc2)c(OC)c1 2.77%
Cc1nc2nc(SCC(=O)N(C)Cc3ccccc3)nn2c(C)c1Cc1ccccc1Cl -4.89%
Cc1c(Cl)cccc1-c1ccc(CNCCCSc2nnnn2C)o1 -19.3%
CCc1ccc(S(=O)(=O)c2cn(C)c3cc(N4CCOCC4)c(F)cc3c2=O)cc1 -13.2%
Cc1nnc(N2CCCC(C(=O)NCc3ccccc3)C2)c2nn(-c3ccccc3)c(C)c12 (configuration not stated) -7.42%
CCCCN(C)CCNC(=O)C1CCCN(S(=O)(=O)c2cccc3nsnc23)C1 (configuration not stated) -4.16%
Fc1ccc(N2CCN(c3nc4ccccc4c4nc(-c5cccnc5)nn34)CC2)cc1 5.51%
O=C1Nc2ccccc2Oc2cc(Oc3cccc(Cl)c3)ccc21 -1.11%
CCOc1ccc(NC(=O)c2c(C)nn(-c3ccc(F)cc3)c2-n2cccc2)cc1 -6.49%
CCOC(=O)C1CCN(CC(=O)Nc2cc(C)c3c(=O)oc4ccccc4c3n2)CC1 -0.98%
Cc1cn2c(=O)cc(COc3cccc(NC(=O)c4ccc(C(C)(C)C)cc4)c3)nc2s1 -26.6%
Cc1ccc(NC(=O)CN(C)S(=O)(=O)c2ccc3c(c2)n(C)c(=O)c(=O)n3C)cc1F -14.2%
Cc1nn(-c2ccccc2)c2nc(C3CC3)cc(C(=O)Nc3ccc(F)cc3)c12 -5.7%
O=C(Nc1ccc(OCc2cc(=O)n3c4c(sc3n2)CCCC4)cc1)c1cccc(F)c1 -11.4%
O=C(CCn1cnc2onc(-c3ccc(F)cc3)c2c1=O)Nc1ccc(F)c(Cl)c1 -15.3%
CCc1ccc(NC(=O)Nc2cn(C)c(=O)c3ccccc23)cc1 5.82%
O=C(NC1CCCC1)c1ccc2c(=O)n(Cc3ccccc3)c(SCc3ccc([N+](=O)[O-])cc3)nc2c1 -29%
CCc1ccc(CNC(=O)Cn2ccc3cc(S(=O)(=O)N4CCCCCC4)ccc32)cc1 2.24%
CCN(CCCNC(=O)CSc1cc(=O)n(CC)c2ccccc12)c1ccccc1 -13.9%
Clc1ccc(Cn2c(CN3CCCC3)nc3ccccc32)cc1 -18.9%
COc1cccc(CNC(=O)CN2C(=O)CCc3cc(S(=O)(=O)N4CCOCC4)ccc32)c1 1.13%
CCc1ccc(-n2nc(CO)c(C(=O)NC(C)c3ccc(Cl)cc3)n2)cc1 (configuration not stated) -0.125%
CCOC(=O)N1CCN(Cc2nc3cc(NC(=O)CC)ccc3n2C(C)C)CC1 -2.3%
COc1ccc(OC)c2sc(N(Cc3cccnc3)C(C)=O)nc12 -14.1%
Cc1nc2ccn(Cc3cccnc3)c(=O)c2cc1C(=O)N1CCN(c2ccccc2F)CC1 -18.2%
Cc1c(C)n(Cc2ccccc2)c2ccc(C(=O)N3CCN(c4ccccc4F)CC3)cc12 1.44%
COc1ccc(SCc2cc(=O)c3ccc(C)c(C)c3[nH]2)cc1 -7.69%
O=C(NCCc1ccc(Cl)cc1)c1cc(-c2ccccc2)n[nH]1 -2.23%
Cc1ccc(Sc2ccc(N3CCCC(C(=O)Nc4ccc(Br)cc4)C3)nn2)cc1 (configuration not stated) -11.4%
COc1cc2nc(N(C)CCCNC(=O)C3CCCO3)nc(N)c2cc1OC (configuration not stated) -17.2%
COc1cccc(CNC(=O)c2ccc(-c3nc(CS(=O)c4ccccc4)c(C)o3)cc2)c1 (configuration not stated) -11.8%
COc1ccc(NC(=O)Cn2cnc3ccc(S(=O)(=O)N4CCC(C)CC4)cc3c2=O)c(OC)c1 -2.35%
COc1ccc(C2=C(C)C(N3CCC(C(=O)NCc4ccc(C)o4)CC3)=NS2(=O)=O)cc1 -15.3%
CCOc1ccc(-c2nnc(SCC(=O)NC3CCCCC3)nc2-c2ccc(OCC)cc2)cc1 -16.1%
COc1ccc2c(c1)Cc1sc(NC(=O)c3ccccc3C)nc1-2 -12.5%
Cc1ccc(C)c(N2CCN(c3nc4ccccc4c(=O)n3-c3ccc(Cl)cc3)CC2)c1 -1.47%
COc1cccc(-c2nc(S(=O)(=O)c3ccc(C)cc3)c(N3CCCCCC3)o2)c1 -20.9%
CCOC(=O)c1ccc(N2C(=O)c3n[nH]c(-c4ccco4)c3C2c2ccc(OC)cc2OC)cc1 (configuration not stated) -15.4%
CC(=O)c1ccc(NC(=O)Nc2ccc3snnc3c2)cc1 -29.9%
COc1ccc(/C=C/C(=O)Nc2ccc(C)cc2)cc1 -15%
CCN(CC)c1ccc(NC(=O)Cn2ncc3c(C)n(Cc4ccccc4F)c(C)c3c2=O)c(C)c1 -8.89%
Cc1ccc(NC(=O)Cc2ccc(NC(=O)N3CCCCc4ccccc43)cc2)cc1Cl -12.5%
CCCCOc1ccc(C(=O)NCC(c2ccc(Cl)cc2)N2CCOCC2)cc1 (configuration not stated) -8.2%
Cc1cccc(C)c1-n1ncc(C(=O)NCCCN2CCCCC2)c1C1CCN(C(=O)OC(C)(C)C)CC1 -19.5%
CC(C)Oc1ccc(CNC(=O)CN2C(=O)CCn3nc(-c4cn(C)c5ccccc45)cc32)cc1 -11.3%
COc1ccc(-n2c(SCc3nc(-c4ccc(C)cc4)no3)nnc2-c2ccccc2)cc1 -11%
CCOC(=O)c1ccc(NC(=O)CN(Cc2ccc(C)cc2)S(=O)(=O)c2ccc(C)cc2)cc1 -17.7%
O=C(Nc1ccc(Oc2ccccc2)cc1)c1ccc(F)c(S(=O)(=O)N2CCN(c3cccc(Cl)c3)CC2)c1 -3.84%
COC(=O)c1nnn(-c2cccc(C)c2)c1N -12.2%
O=C(Nc1nc2c(Cl)cccc2s1)c1ccc(S(=O)(=O)N2CCc3ccccc32)cc1 -16.3%
Cc1ccccc1OCC(=O)Nc1ccc2oc(-c3ccc(F)cc3)nc2c1 1.66%
Cc1ccc(C)c(N2C(=O)N(Cc3ccccc3C)c3ccccc3S2(=O)=O)c1 1.83%
COC(=O)c1ccc(NC(=O)CSc2n[nH]c(-c3ccccc3)n2)cc1 -12.6%
CC1CN(C(=O)Nc2ccc(C(=O)NCc3ccccc3F)cc2)c2ccccc2S1 (configuration not stated) -12.4%
Fc1ccccc1N1CCN(Cc2nnc(-c3ccc4c(c3)OCO4)o2)CC1 -10.3%
Cc1ccc(-n2ncc(C(=O)N3CCN(Cc4ccccc4)CC3)c2C2CCN(C(=O)OC(C)(C)C)CC2)c(C)c1 7.74%
CC(C)(C)OC(=O)N1CCC(c2c(C(=O)NCc3ccco3)cnn2-c2ccc(F)cc2)CC1 7.52%
CCOC(=O)c1ccccc1NC(=O)Cn1c(=O)n(Cc2ccccc2)c(=O)c2c(C)c(C)sc21 -30.9%
CCC(=O)Oc1ccc(-c2nc3ccccc3c(=O)o2)cc1 5%
CCN(c1ccc(Cl)cc1)S(=O)(=O)c1nnc(NC(=O)C(C)C)s1 -15.1%
CN1CCC(Nc2ncc3ncnc(Nc4ccc(F)c(Cl)c4)c3n2)CC1 -24.8%
O=C1C(c2[nH]c3ccccc3c2O)=Nc2ccccc21 -17.6%
COc1ccc(-c2nnc(SCC(=O)Nc3ccc(F)cc3)s2)cc1 -9.38%
O=c1c2sc3ccccc3c2n(Cc2ccccc2F)c(=O)n1CCc1ccccc1 4.18%
CN(C)c1ccc(C(CNS(=O)(=O)c2ccc(Br)cc2)N2CCOCC2)cc1 (configuration not stated) -17.2%
CN(C)c1ccc(NC(=O)Cn2c(SCc3ccccc3F)nc3cccnc32)cc1 -15.8%
Cc1ccc(C)c(S(=O)(=O)c2nnn3c2nc(NCc2ccc4c(c2)OCO4)c2sccc23)c1 -6.73%
Cc1c(C)n(C)c2ccc(C(=O)NCCCN3CCCCC3)cc12 -24.7%
COc1ccc(NC(=O)C2=C(C)Nc3nc(SCc4ccccc4)nn3C2c2cc(OC)ccc2OC)cc1 (configuration not stated) -5.38%
Cc1ccc(-c2c(C(=O)NCCc3ccc(Cl)cc3)oc(=O)c3ccccc23)cc1 -2.75%
Cc1cccc(N2C(=O)CCSC23C(=O)N(Cc2ccc(F)cc2)c2ccccc23)c1 (configuration not stated) 0.52%
O=C(c1ccc2c(Cl)c3c(nc2c1)CCCC3)N1CCN(c2cccc(Cl)c2)CC1 -35.6%
CCc1ccc(-c2ccc(C(=O)Oc3ccc(Br)cc3)cc2)nc1 -11.3%
Cc1ccc(S(=O)(=O)c2nc(-c3ccc(Cl)cc3)oc2N2CCCCCC2)cc1 -11.8%
CCN(CC)S(=O)(=O)c1ccc(C(=O)N=c2sc3cccc(OC)c3n2C)cc1 -6.57%
COc1ccc(CNc2ncnc3c2c(-c2ccccc2)cn3-c2ccccc2)cc1 -12.3%
CN1CC(=O)N(CC(=O)Nc2ccc(Cl)c(C(F)(F)F)c2)c2ccccc2C1=O -15.4%
Cc1ccc(-c2nc(SCc3ccc(Br)cc3)n3[nH]c(=O)cc3n2)cc1 3.75%
Cc1c(-c2cccc(NC(=O)C(C)(C)C)c2)nc2ncccn12 -5.4%
Cc1nnc(SCC(=O)NCc2ccccc2F)c2nn(-c3ccc(Cl)cc3)c(C)c12 -26.5%
